Each structure is given as a SMILES string. In all, about 310,000 compounds went through this assay and about 2,200 (0.71%) showed an effect of 50% or more. Effects have a minus sign here. The list shows a part of the results.

These results are taken from PMC4336329 (PLoS ONE, 2015).

The target of the test is human ether-à-go-go-related gene (hERG) potassium channel (human, UniProt Q12809). The test is described as follows: primary screen, population patch clamp on CHO cells stably expressing hERG.
Sequence of human ether-à-go-go-related gene (hERG) potassium channel (Q12809 whole entry, looked up): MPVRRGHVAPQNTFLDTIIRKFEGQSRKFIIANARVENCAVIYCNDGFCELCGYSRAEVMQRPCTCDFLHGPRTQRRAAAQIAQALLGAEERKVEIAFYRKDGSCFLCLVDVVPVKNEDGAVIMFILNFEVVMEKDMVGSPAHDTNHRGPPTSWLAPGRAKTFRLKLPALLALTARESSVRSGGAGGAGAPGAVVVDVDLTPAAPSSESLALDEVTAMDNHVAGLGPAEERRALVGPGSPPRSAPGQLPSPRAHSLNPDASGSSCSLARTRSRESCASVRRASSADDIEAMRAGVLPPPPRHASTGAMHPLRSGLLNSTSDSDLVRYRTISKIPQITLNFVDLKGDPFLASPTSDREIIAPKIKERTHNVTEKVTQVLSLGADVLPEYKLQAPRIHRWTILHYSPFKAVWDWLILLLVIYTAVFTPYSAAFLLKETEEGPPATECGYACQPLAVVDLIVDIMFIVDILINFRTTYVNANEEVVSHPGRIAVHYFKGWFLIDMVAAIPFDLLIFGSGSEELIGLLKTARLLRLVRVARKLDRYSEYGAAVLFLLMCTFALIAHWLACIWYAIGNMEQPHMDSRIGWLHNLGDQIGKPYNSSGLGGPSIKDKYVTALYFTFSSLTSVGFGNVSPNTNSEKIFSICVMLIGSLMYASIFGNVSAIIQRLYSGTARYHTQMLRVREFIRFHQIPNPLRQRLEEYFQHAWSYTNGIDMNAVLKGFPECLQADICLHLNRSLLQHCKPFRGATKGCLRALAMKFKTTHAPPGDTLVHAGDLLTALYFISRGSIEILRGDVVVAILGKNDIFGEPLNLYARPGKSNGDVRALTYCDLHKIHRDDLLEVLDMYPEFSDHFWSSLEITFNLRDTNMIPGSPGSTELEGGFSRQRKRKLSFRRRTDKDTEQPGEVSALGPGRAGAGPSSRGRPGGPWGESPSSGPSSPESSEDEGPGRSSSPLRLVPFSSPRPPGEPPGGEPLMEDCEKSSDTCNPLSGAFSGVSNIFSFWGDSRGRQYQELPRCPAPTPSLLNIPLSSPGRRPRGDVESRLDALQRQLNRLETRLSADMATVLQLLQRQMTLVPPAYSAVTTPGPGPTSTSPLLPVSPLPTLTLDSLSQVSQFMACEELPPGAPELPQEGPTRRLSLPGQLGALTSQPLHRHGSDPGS
As to `Cc1ncc([N+](=O)[O-])n1CC(C)O` (stereo not shown), the “hERG current change (%, negative = inhibition) at 1uM” value was 12.7%.
The same measure for `C/C(=N/N=C(/N)SCc1ccccc1)C(C)(C)C.Cl`: 13.4%; for `CC(=O)C1=C(C)NC(SCc2ccc(C#N)cc2)=C(C#N)C1c1ccco1` (stereo not shown): -4.3%.
As for `O=C(Cc1ccc(Cl)cc1)NCC(=O)N1CCN(Cc2ccccc2)CC1`, the figure is -5.46%.
As for `Cc1ccc(N/N=C/c2cccnc2)cc1.Cl`, the figure is -2.1%; as for `Cc1cc(OCc2cc(C(=O)N(C)CCCN3CCOCC3)no2)cc(C)c1Cl`, -8.26%; as for `Cc1cc(=O)[nH]c2ccc(S(=O)(=O)Nc3ccccc3)cc12`, 15.4%.
On to `CC(C)NC(=O)CSc1nncn1-c1ccccc1`, for which the “hERG current change (%, negative = inhibition) at 1uM” value is 13.2%.
The same measure for `O=C(c1ccc(F)cc1)N1CCN2C(=O)c3ccccc3C12c1ccc(Cl)cc1` (stereo not shown): 5.84%; for `Cc1nc(SCc2ccccc2)c([N+](=O)[O-])[nH]1`: 19.1%; for `Cn1cnnc1SCC(=O)c1ccc2c(c1)OCCO2`: 0.814%.
As for `CCNc1ccc(S(N)(=O)=O)cc1[N+](=O)[O-]`, the figure is -0.632%.
`CCOC(=O)c1c(NC(=O)CSc2nnc(CNc3ccc(C)cc3C)o2)sc(C)c1C`: the “hERG current change (%, negative = inhibition) at 1uM” value was 15.6%.
With `CC1CN(c2nnc(NC(=O)c3ccccc3)s2)CC(C)O1` (stereo not shown), the “hERG current change (%, negative = inhibition) at 1uM” value amounted to 46.9%.
The same measure for `O=C(O)c1ccc(S(=O)(=O)c2ccccc2)cc1`: 11.5%.
With `CC(COc1ccccc1)N1CCC(CO)(CCc2ccccc2)CC1` (stereo not shown), the “hERG current change (%, negative = inhibition) at 1uM” value is reported as -84.8%.
The same measure for `Cc1ccc(CNC(=O)C2CC3Cn4c(nc5ccccc54)C3N2C)o1` (stereo not shown): 11.7%.
As for `COc1ccccc1C(=O)Nc1ccc2c(C)cc(=O)oc2c1`, the figure is 16.7%; as for `CCCC1(CCC)NC(=O)N(CC(=O)c2cc(C)n(-c3ccc4c(c3)OCO4)c2C)C1=O`, 4.19%.
As for `Cc1cc(F)ccc1S(=O)(=O)Nc1ccccc1C(=O)NCc1cccnc1`, the figure is 9.07%; as for `COc1ccc(OC)c(NC(=O)COc2ccc(Br)cc2)c1`, 12.9%.
Consider `COc1ccc(-c2cc(C(F)(F)F)nc(SCc3cccc(C(=O)O)c3)n2)cc1`, for which the “hERG current change (%, negative = inhibition) at 1uM” value was found to be 11.5%.
As for `COc1cccc(N2C(=NC(=O)c3ccccc3)SC3CS(=O)(=O)CC32)c1` (stereo not shown), the figure is 10.4%; as for `N/C(Cc1nc(-c2ccc(Br)cc2)cs1)=N\O`, 11.7%.
The same measure for `COc1ccc(CCN(C)C2CCCN(C(=O)c3ccnn3C)C2)cc1OC` (stereo not shown): -4.79%; for `Cc1ccc(C)n1-c1ccc(-c2nnco2)cc1`: 9.77%; for `Cc1ccc(C(=O)N2CC(C)CC(C)C2)cc1NC1=NC2CS(=O)(=O)CC2S1` (stereo not shown): 17.8%.
As for `O=C(Cc1c(F)cccc1Cl)c1ccc(O)cc1O`, the figure is 8.6%.
For `Cc1cc(C)cc(OCC(=O)Nc2ccc(F)cc2)c1`, the “hERG current change (%, negative = inhibition) at 1uM” value worked out at 18.5%.
As for `COc1ccc2c(c1)c(C(=O)CN1CCN(c3ccccc3)CC1)c(C)n2C`, the figure is 2.94%.
The same measure for `CCC(=O)N1CCN(c2nc3ccc(Br)cc3s2)CC1`: -15%; for `COc1ccccc1NS(=O)(=O)c1cc(NC(=O)C2CC2)ccc1N1CCOCC1`: 19.5%; for `COc1cc(CNCCc2ccccc2)ccc1OCC(=O)NC(C)(C)C.Cl`: 12.8%.
As for `Cc1noc(C(=O)Nc2c(C)n(C)n(-c3ccccc3)c2=O)c1Cl`, the figure is 8.06%; as for `COc1ccc(/C(C)=N/NC(=O)CNC(=O)c2cccnc2)cc1`, 13.9%.
Consider `CCSc1nnc(NC(=O)CSc2nc3c(c(=O)n2C)SC(C)C3)s1` (stereo not shown), for which the “hERG current change (%, negative = inhibition) at 1uM” value stood at 0.407%.
As for `O=C(COC(=O)c1ccc(Br)cc1)NC(=O)NCc1ccccc1`, the figure is -3.36%; as for `O=C(c1ccco1)N(CC1CCCO1)c1nc(-c2ccccc2)cs1` (stereo not shown), 16.4%.
As to `C/C=C/c1ccc(OCC(=O)Nc2cc(Cl)ccc2-n2cncn2)c(OC)c1`, the “hERG current change (%, negative = inhibition) at 1uM” value is given as -6.53%.
As for `Cc1ccccc1NC(=O)c1cccc(N2C(=O)C3C4CC(C(Br)C4Br)C3C2=O)c1` (stereo not shown), the figure is 13.9%; as for `O=C(CN1C(=O)NC2(CCCc3ccccc32)C1=O)N1CCc2ccccc2C1` (stereo not shown), 11.6%; as for `O=C(Cc1ccc(Br)cc1)NCCCn1ccnc1`, 10.7%.
As for `O=C(O)CCCCCNc1nc2ncn(Cc3ccccc3)c2c(=O)[nH]1`, the figure is 10.5%; as for `Cc1ccc(Cn2nc(C(=O)Nc3ccc(Br)cc3)cc2C)cc1`, 14.1%; as for `Cc1cc(C)cc(NC(=O)CSc2n[nH]c(-c3cccnc3)n2)c1`, 12.3%.
As for `CCN(CC)CCN(C(=O)Cn1nnc(-c2ccc(C)o2)n1)C(C(=O)NC(C)(C)C)c1cccs1` (stereo not shown), the figure is -0.0216%; as for `Cc1ccc(NS(=O)(=O)c2ccc(NC(=O)c3ccccc3C(=O)O)cc2)c(C)c1`, 14.2%.
Turning to `CC(C)NC(=S)NC(=O)/C=C/c1cccc2ccccc12`, the “hERG current change (%, negative = inhibition) at 1uM” value is on record as 10.7%.
The same measure for `COc1ccccc1C1=NNC(=Nc2cccc(S(=O)(=O)N(C)C)c2)SC1`: 5.93%; for `COc1ccc(OCC(=O)Nc2cccc(NC(=O)c3ccco3)c2)cc1`: 9.36%.
As for `CCOc1c(C(N)=O)c(-c2ccccc2)c2c(=O)[nH]c3ccccc3n12`, the figure is 10.4%.
As for `CCN(CC)S(=O)(=O)c1ccc(-c2nnco2)cc1`, the “hERG current change (%, negative = inhibition) at 1uM” value came out at 4.13%.
As to `COc1ccc(CCN(C)C(=O)CN2C(=O)c3ccccc3S2(=O)=O)cc1OC`, the “hERG current change (%, negative = inhibition) at 1uM” value is recorded as 7.03%.
As for `Cc1cc(C)cc(NC(=S)N2CCN(S(C)(=O)=O)CC2)c1`, the figure is 12.9%; as for `O=C(c1ccc(-c2ccc([N+](=O)[O-])cc2)o1)N1CCCC(C(F)(F)F)C1` (stereo not shown), -0.108%; as for `Cc1cnc2ncc3sccc3c2c1`, 14.3%.
As for `Cc1ccc(-n2ncc(C(=O)NCC3CCN(C4CCCC4)C3)c2C2CCN(C(=O)OC(C)(C)C)CC2)cc1C` (stereo not shown), the figure is 4.77%.
Consider `Cc1cc(NC(=O)COC(=O)C2CC(=O)N(c3ccc(Br)cc3)C2)no1` (stereo not shown), for which the “hERG current change (%, negative = inhibition) at 1uM” value is listed as 8.28%.
As for `O=C(C1CCN(S(=O)(=O)c2ccc(Br)s2)CC1)N1CCc2ccccc21`, the figure is -10%; as for `CCCn1c(SCC(=O)NC2CC2)nnc1-c1cccs1`, 12.2%.
As for `Cc1ccc2nc3c(cc2c1)CC1(C(=O)N(C)C(=O)N(C)C1=O)C1CCCCN31` (stereo not shown), the figure is 12.5%; as for `Cc1ccc(S(=O)(=O)N(CC(=O)Nc2ccccc2C(=O)O)c2ccccc2)cc1`, 18%.
The same measure for `COC(=O)CC1C(=O)NCCN1C(=O)c1ccc([N+](=O)[O-])cc1` (stereo not shown): 2.7%; for `COc1ccccc1N1CCN(S(=O)(=O)c2cc(C)sc2C)CC1`: 3.78%.
`CCC1(C)Cc2ccccc2-c2c1c(=O)n(Cc1ccccc1)c1nnnn21` (stereo not shown): the “hERG current change (%, negative = inhibition) at 1uM” value came out at 8.32%.
As for `Cc1ccc(S(=O)(=O)Nc2ccccc2C(=O)N2CCCCC2)cc1`, the figure is -3.86%; as for `O=C(Cn1ccc(C(F)(F)F)n1)N/N=C/c1ccc2c(c1)OCO2`, 5.51%; as for `Cn1c(=O)[nH]c(=O)c2c1nc(NCCCO)n2CCOc1ccccc1`, -20.9%.
On to `O=C(O)c1nn2c(C(F)(F)F)cc(-c3cccs3)nc2c1Cl`, for which the “hERG current change (%, negative = inhibition) at 1uM” value stood at 10.6%.
As for `O=C(Cn1ncc2c(=O)oc3ccccc3c21)NCCN1CCN(c2ccccc2F)CC1`, the figure is 7.3%; as for `CCOC(=O)c1c(NC(=O)COC(=O)Cc2ccccc2[N+](=O)[O-])sc(C(=O)N(C)C)c1C`, 3.78%.
The same measure for `CCCC(C)c1nnc(NC(=O)CN2C(=O)c3ccccc3C2=O)s1` (stereo not shown): 9.34%; for `O=C(/C=C/c1cccs1)c1cc(Cl)ccc1OC(=O)N1CCOCC1`: 2.77%.
The same measure for `CCC(=O)OCC(=O)c1c(N)n(Cc2ccccc2)c(=O)n(C)c1=O`: 5.82%; for `CCN(CC)c1ccc(C2C(C(=O)OCCOC)=C(C)NC3=C2C(=O)CCC3)cc1` (stereo not shown): 11%; for `O=C(NC(=S)N1CCN(c2ccc(C(F)(F)F)cc2[N+](=O)[O-])CC1)c1cccs1`: -11.2%.
Consider `COc1ccc([C@H]2CC(=O)C=C(c3cccc(NC(C)=O)c3)C2)cc1`, for which the “hERG current change (%, negative = inhibition) at 1uM” value was -6.64%.
The same measure for `O=C(CNC(=O)c1ccc(F)cc1)N/N=C/c1cc(Br)ccc1OC(=O)/C=C/c1ccco1`: 12.1%.
The same measure for `CC(C)(C)C(=O)Nc1ccc(NC(=O)c2ccco2)nc1`: 12.6%; for `Cc1c(Br)cc(C(=O)O)c(C)c1C`: 18%; for `Cc1cc(C)cc(NC(=O)C[n+]2ccccc2)c1.[Cl-]`: 6.64%.
As for `CCOC(=O)c1nnn(-c2nonc2N)c1CNc1ccc(C)c(Br)c1`, the figure is 8.22%; as for `CCS(=O)(=O)Nc1ccc(C2=NN(C(=O)c3ccco3)C(c3ccc(C)cc3)C2)cc1` (stereo not shown), 2.48%; as for `CCCc1ccc(OCCNC(=O)C2CCCCC2)cc1`, 1.41%.
On to `CCC(C)[C@H](NC(=O)NCc1cccs1)C(=O)O` (stereo partly shown), for which the “hERG current change (%, negative = inhibition) at 1uM” value worked out at 14.8%.
The same measure for `CC1=C(C(=O)OCc2ccccc2)C(c2ccc([N+](=O)[O-])cc2)NC(=O)N1` (stereo not shown): 9.92%.
As for `O=C(Nc1ccc(S(=O)(=O)N2CCCC2)cc1)c1ccc([N+](=O)[O-])cc1`, the figure is 10.1%; as for `Cc1cc(N2CCCC2)ccc1C=C(C#N)C#N`, 1.28%.
